Measured values as given in PubChem BioAssay (Tox21).
Inconclusive means that the source gave no clear call. Such entries were picked first, then a sample of the others. For part of these data: No potency is given beside an inconclusive call; the fits are too rough. Active and inactive are the calls of the source. Unless noted, the call rests on the fitted dose curve; in most records, active means well fitted curve in the direction sought with a large enough effect in the repeat runs; inconclusive means weak or mixed curves; inactive means no such curve, though single readings can be large; an effect the other way counts as inactive or inconclusive.

Experiments:
[1] = qHTS assay to identify small molecule that activate the aryl hydrocarbon receptor (AhR) signaling pathway - cell viability counter screen (AID 743086); further: potency means the concentration at half of the fitted maximal effect; nearly all actives have a fitted effect of over 45% in size
Method in brief: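 HepG2-AhR-luc (HG2L7.5c1) cells, 4000/well, were preincubated 5 h at 37C, exposed to compound in qHTS format for 24 hr at 37C, then given CellTiter-Fluor for 30 min; viability was read as fluorescence in the reporter wells.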

[2] = qHTS assay for small molecule agonists of the antioxidant response element (ARE) signaling pathway (AID 743202; active means well fitted activation curve with a large enough effect in the signal ratio in the repeat runs, not every such curve was filed as active; inconclusive means weak or mixed curves, or effect the other way; inactive means no such curve, though single readings can be large or run the other way; the % refers to the signal ratio; further: potency means the concentration at half of the fitted maximal effect; on activation: on the % scale 0 is the no-effect control and ±100 the full control effect); details: HepG2 ARE-bla reporter, beta-lactamase FRET, 16 h
Method in brief: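 Following a 16 h, 37 C exposure of reporter HepG2 cells (ARE-driven beta-lactamase, 2,000 cells/well) to compounds, FRET substrate was applied for 2 h at room temperature and fluorescence intensity recorded.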

[3] = molecular target: Peroxisome proliferator-activated receptor delta (Homo sapiens) (UniProt Q03181); assay: qHTS assay to identify small molecule agonists of the peroxisome proliferator-activated receptor delta (PPARd) signaling pathway (AID 743212; calls by dose curve; further: on the % scale 0 is the no-effect control and ±100 the full control effect); details: HEK293H PPARd-UAS-bla, beta-lactamase FRET ratio, 17 h; activation: at 62.6 µM (top of the series) unless noted
UniProt Q03181, sequence (Q03181 whole entry, looked up): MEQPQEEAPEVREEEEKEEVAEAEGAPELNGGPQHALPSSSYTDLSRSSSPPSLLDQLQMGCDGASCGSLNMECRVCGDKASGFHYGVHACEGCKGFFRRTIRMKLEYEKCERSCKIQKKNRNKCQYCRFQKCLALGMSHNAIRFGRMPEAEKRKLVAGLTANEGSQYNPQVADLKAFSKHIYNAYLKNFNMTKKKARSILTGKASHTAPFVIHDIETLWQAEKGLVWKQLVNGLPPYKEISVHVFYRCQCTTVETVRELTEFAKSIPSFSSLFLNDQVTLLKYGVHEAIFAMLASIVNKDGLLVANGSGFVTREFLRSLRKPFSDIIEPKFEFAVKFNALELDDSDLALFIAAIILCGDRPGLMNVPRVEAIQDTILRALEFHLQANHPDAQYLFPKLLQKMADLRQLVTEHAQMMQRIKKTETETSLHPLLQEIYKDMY
Method in brief: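 Beta-lactamase reporter read by fluorescence (LiveBLAzer B/G FRET, 2 h, room temperature). Test agents, in DMSO, incubated at 37 C with PPARd-bla HEK293H cells.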

[4] = qHTS assay to identify small molecule agonists of the farnesoid-X-receptor (FXR) signaling pathway - cell viability counter screen (AID 743218); details: FXR-bla HEK293T viability, CellTiter-Glo luminescence, 16 h; viability change, negative = cytotoxic: at 62.6 µM (top of the series) unless noted; further: potency means the concentration at half of the fitted maximal effect; nearly all actives have a fitted effect of over 45% in size
Method in brief: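 Viability counter screen in the same wells: CellTiter-Glo luminescence, 30 min room-temperature incubation, measured after the beta-lactamase read. Cells were GeneBLAzer FXR-UAS-bla HEK 293T, compound-treated 16 h at 37C.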

[5] = molecular target: Vitamin D3 receptor (Homo sapiens) (UniProt P11473); assay: qHTS assay to identify small molecule antagonists of the vitamin D receptor (VDR) signaling pathway (AID 743223; active means well fitted inhibition curve with a large enough effect in the signal ratio in the repeat runs, not every such curve was filed as active; inconclusive means weak or mixed curves, or effect the other way; inactive means no such curve, though single readings can be large or run the other way; the % refers to the signal ratio; further: potency means the concentration at half of the fitted maximal effect; on activity change, negative = inhibition: on the % scale 0 is the no-effect control and ±100 the full control effect); details: VDR-UAS-bla HEK293T, beta-lactamase FRET ratio, 16 h; activity change, negative = inhibition: at 61 µM (top of the series) unless noted
UniProt P11473, sequence (P11473 whole entry, looked up): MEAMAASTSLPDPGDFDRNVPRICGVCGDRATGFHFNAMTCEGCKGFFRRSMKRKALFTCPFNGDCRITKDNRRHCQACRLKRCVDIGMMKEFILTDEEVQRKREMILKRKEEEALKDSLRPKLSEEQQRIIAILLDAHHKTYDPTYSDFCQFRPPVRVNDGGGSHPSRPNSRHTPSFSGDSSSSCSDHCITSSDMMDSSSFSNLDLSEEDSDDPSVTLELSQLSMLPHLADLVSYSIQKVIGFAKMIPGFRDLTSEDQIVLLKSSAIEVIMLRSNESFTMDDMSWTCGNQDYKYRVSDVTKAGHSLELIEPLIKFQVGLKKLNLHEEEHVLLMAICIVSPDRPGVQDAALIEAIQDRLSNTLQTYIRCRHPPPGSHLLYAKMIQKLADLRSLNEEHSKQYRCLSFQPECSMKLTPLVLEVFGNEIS
Method in brief: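 VDR-bla cells were treated with compound plus 3 nM final 1alpha,25-dihydroxyvitamin D3 for 16 h at 37C. Beta-lactamase reporter read by B/G FRET substrate fluorescence after 2 h at room temperature. qHTS format.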

[6] = qHTS assay to identify small molecule antagonists of the vitamin D receptor (VDR) signaling pathway - cell viability counter screen (AID 743225); details: VDR-bla HEK293T viability, CellTiter-Glo luminescence, 16 h; viability change, negative = cytotoxic: at 61 µM (top of the series) unless noted; further: potency means the concentration at half of the fitted maximal effect; nearly all actives have a fitted effect of over 50% in size
Method in brief: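 VDR-UAS-bla HEK 293T cells were plated and incubated 4 h at 37C, then dosed with compound plus 3 nM (final) 1-alpha,25-dihydroxyvitamin D3 for 16 h. After the 2 h beta-lactamase read, viability in the same wells was read as CellTiter-Glo luminescence after 30 min at room temperature.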

[7] = molecular target: Peroxisome proliferator-activated receptor gamma (Homo sapiens) (UniProt P37231); assay: qHTS assay to identify small molecule agonists of the peroxisome proliferator-activated receptor gamma (PPARg) signaling pathway (AID 743094; active means well fitted activation curve with a large enough effect in the signal ratio in the repeat runs, not every such curve was filed as active; inconclusive means weak or mixed curves, or effect the other way; inactive means no such curve, though single readings can be large or run the other way; the % refers to the signal ratio; further: potency means the concentration at half of the fitted maximal effect); details: HEK293H PPARg-UAS-bla, beta-lactamase FRET ratio, 17 h; activation: at 57 µM (top of the series) unless noted
UniProt P37231, sequence (P37231 whole entry, looked up): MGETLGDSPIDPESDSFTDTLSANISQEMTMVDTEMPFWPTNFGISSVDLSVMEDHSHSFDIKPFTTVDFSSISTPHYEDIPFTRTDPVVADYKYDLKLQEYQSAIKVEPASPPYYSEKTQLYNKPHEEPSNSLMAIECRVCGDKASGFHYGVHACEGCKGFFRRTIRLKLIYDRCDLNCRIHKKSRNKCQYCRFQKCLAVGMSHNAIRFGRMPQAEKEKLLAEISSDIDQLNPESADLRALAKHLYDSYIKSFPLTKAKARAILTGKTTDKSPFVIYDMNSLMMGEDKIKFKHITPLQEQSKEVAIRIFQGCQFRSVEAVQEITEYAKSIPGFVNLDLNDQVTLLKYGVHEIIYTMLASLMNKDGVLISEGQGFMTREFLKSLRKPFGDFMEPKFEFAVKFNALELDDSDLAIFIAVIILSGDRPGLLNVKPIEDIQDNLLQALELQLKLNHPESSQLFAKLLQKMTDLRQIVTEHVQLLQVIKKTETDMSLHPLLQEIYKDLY
Method in brief: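 Agonist activity was taken from a beta-lactamase reporter (FRET substrate, 1 h at room temperature) in HEK293H cells carrying a PPARg UAS-bla construct. Compounds in DMSO were incubated 17 h at 37C after a 5 h cell pre-incubation.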

[8] = molecular target: Peroxisome proliferator-activated receptor gamma (Homo sapiens) (UniProt P37231); assay: qHTS assay to identify small molecule antagonists of the peroxisome proliferator-activated receptor gamma (PPARg) signaling pathway (AID 743191; calls by dose curve; further: potency means the concentration at half of the fitted maximal effect; nearly all actives have a fitted effect of over 30% in size); details: HEK293H PPARg-UAS-bla, beta-lactamase ratio, antagonist, 17 h; ratio activity, negative = inhibition: at 62.6 µM (top of the series) unless noted
Method in brief: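 GeneBLAzer PPARg UAS-bla HEK293H cells carrying a UAS-driven beta-lactamase reporter were plated at 3000 cells/well, preincubated 5 h at 37C, then given compound for 17 h at 37C; LiveBLAzer B/G FRET substrate was read after 1 h at room temperature.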

[9] = qHTS assay to identify small molecule antagonists of the peroxisome proliferator-activated receptor gamma (PPARg) signaling pathway - cell viability counter screen (AID 743194); details: PPARg-bla HEK293H viability, CellTiter-Glo luminescence, 17 h, co-treated with 50 nM rosiglitazone; activity change, negative = cytotoxicity: at 62.6 µM (top of the series) unless noted; further: potency means the concentration at half of the fitted maximal effect; nearly all actives have a fitted effect of over 55% in size
Method in brief: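 PPARg-UAS-bla HEK293H cells were plated, rested 5 h at 37 C, then treated with compounds plus rosiglitazone (50 nM final) for 17 h at 37 C; viability was then read by CellTiter-Glo luminescence after 30 min at room temperature.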

[10] = qHTS assay for small molecule activators of the heat shock response signaling pathway - cell viability counter screen (AID 743209); details: HSE-bla HeLa viability, CellTiter-Glo luminescence, 5 h; activity change, negative = cytotoxicity: at 62.6 µM (top of the series) unless noted; further: potency means the concentration at half of the fitted maximal effect; nearly all actives have a fitted effect of over 50% in size
Method in brief: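 Cytotoxicity counter screen run in the same wells as the heat-shock bla reporter assay: HeLa HSE-bla cells, 5 h compound exposure at 37 C, viability read by CellTiter-Glo luminescence.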

[11] = qHTS assay for small molecule activators of the heat shock response signaling pathway (AID 743210; active means well fitted activation curve with a large enough effect in the signal ratio in the repeat runs, with a control signal flat, not every such curve was filed as active; inconclusive means weak or mixed curves; the % refers to the signal ratio; further: potency means the concentration at half of the fitted maximal effect); details: HeLa HSE-bla reporter, beta-lactamase ratio, 5 h; activation: at 62.6 µM (top of the series)
Method in brief: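 Heat shock element–beta-lactamase HeLa reporter cells; qHTS with compounds for 5 h at 37 C; detection by FRET substrate fluorescence after 2.5 h at RT.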

[12] = qHTS assay to identify small molecule agonists of the peroxisome proliferator-activated receptor delta (PPARd) signaling pathway - cell viability counter screen (AID 743211); details: PPARd-bla HEK293H viability, CellTiter-Glo luminescence, 17 h; activity change, negative = cytotoxicity: at 62.6 µM (top of the series); further: potency means the concentration at half of the fitted maximal effect; nearly all actives have a fitted effect of over 55% in size
Method in brief: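 PPARd-bla HEK293H cells (3000/well) were pre-incubated 5 h at 37 C, then exposed to compound for 17 h at 37 C. After 2 h with LiveBLAzer substrate, CellTiter-Glo was added to the same wells; luminescence read after 30 min at room temperature.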

[13] = qHTS assay to identify small molecule antagonists of the peroxisome proliferator-activated receptor delta (PPARd) signaling pathway - cell viability counter screen (AID 743213); details: PPARd-bla HEK293H viability, CellTiter-Glo luminescence, 17 h; viability change, negative = cytotoxic: at 62 µM (top of the series) unless noted; further: potency means the concentration at half of the fitted maximal effect; nearly all actives have a fitted effect of over 50% in size
Method in brief: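 Same-well viability: cells pre-incubated 5 h, dosed with compound plus 300 nM L165041, kept 17 h at 37 C, FRET substrate 2 h RT, then CellTiter-Glo 30 min RT and luminescence.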

[14] = molecular target: Peroxisome proliferator-activated receptor delta (Homo sapiens) (UniProt Q03181); assay: qHTS assay to identify small molecule antagonists of the peroxisome proliferator-activated receptor delta (PPARd) signaling pathway (AID 743215; active means well fitted inhibition curve with a large enough effect in the signal ratio in the repeat runs, not every such curve was filed as active; inconclusive means weak or mixed curves, or effect the other way; inactive means no such curve, though single readings can be large or run the other way; the % refers to the signal ratio;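 further: cells stimulated with agonist L165041 at 300 nM final during compound exposure; potency means the concentration at half of the fitted maximal effect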); details: HEK293H PPARd-UAS-bla, beta-lactamase FRET ratio, antagonist, 17 h; ratio activity, negative = inhibition: at 62 µM (top of the series) unless noted
Method in brief: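 Agonist L165041 (300 nM final) added with compound to PPARd-bla HEK293H UAS-bla reporter cells; 17 h incubation at 37 C. Read-out: LiveBLAzer FRET substrate, 2 h at room temperature, fluorescence intensity.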

[15] = molecular target: Bile acid receptor (Homo sapiens) (UniProt Q96RI1); assay: qHTS assay to identify small molecule antagonists of the farnesoid-X-receptor (FXR) signaling pathway (AID 743217; active means well fitted inhibition curve with a large enough effect in the signal ratio in the repeat runs, not every such curve was filed as active; inconclusive means weak or mixed curves, or effect the other way; inactive means no such curve, though single readings can be large or run the other way; the % refers to the signal ratio; further: potency means the concentration at half of the fitted maximal effect); details: HEK293T FXR-UAS-bla, beta-lactamase ratio, CDCA-stimulated, 16 h; activity change, negative = inhibition: at 62.6 µM (top of the series) unless noted
UniProt Q96RI1, sequence (Q96RI1 whole entry, looked up): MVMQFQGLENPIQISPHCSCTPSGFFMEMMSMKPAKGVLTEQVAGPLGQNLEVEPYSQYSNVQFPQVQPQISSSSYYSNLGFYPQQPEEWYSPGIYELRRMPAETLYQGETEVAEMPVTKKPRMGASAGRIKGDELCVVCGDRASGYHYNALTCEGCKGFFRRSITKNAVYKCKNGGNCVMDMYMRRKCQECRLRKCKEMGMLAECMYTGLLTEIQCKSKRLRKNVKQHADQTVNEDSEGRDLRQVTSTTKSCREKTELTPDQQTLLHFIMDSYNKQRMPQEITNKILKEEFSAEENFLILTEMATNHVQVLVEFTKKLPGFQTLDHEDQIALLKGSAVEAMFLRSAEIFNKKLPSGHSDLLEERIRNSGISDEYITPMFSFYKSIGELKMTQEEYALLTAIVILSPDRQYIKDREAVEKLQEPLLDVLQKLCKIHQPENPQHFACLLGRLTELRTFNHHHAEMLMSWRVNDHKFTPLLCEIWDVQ
Method in brief: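 Antagonist mode: chenodeoxycholic acid at 50 uM final stimulates a UAS-driven beta-lactamase reporter in HEK 293T FXR-bla cells during 16 h, 37C compound exposure. Read-out is FRET substrate fluorescence after 2 h at room temperature.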

[16] = qHTS assay to identify small molecule antagonists of the farnesoid-X-receptor (FXR) signaling pathway - cell viability counter screen (AID 743221; active means well fitted cell-killing curve with a large enough effect in the repeat runs, not every such curve was filed as active; inconclusive means weak or mixed curves, or effect the other way; inactive means no such curve, though single readings can be large or run the other way; further: potency means the concentration at half of the fitted maximal effect; nearly all actives have a fitted effect of over 50% in size); details: FXR-bla HEK293T viability, CellTiter-Glo luminescence, 16 h; activity change, negative = cytotoxicity: at 62.6 µM (top of the series)
Method in brief: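 GeneBLAzer FXR-UAS-bla HEK 293T cells, compound plus chenodeoxycholic acid (50 uM final), 16 h at 37 C. CellTiter-Glo added to the same wells after the beta-lactamase read; luminescence read after 30 min at room temperature as viability.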

[17] = molecular target: Vitamin D3 receptor (Homo sapiens) (UniProt P11473); assay: qHTS assay to identify small molecule agonists of the vitamin D receptor (VDR) signaling pathway (AID 743222; calls by dose curve; further: on the % scale 0 is the no-effect control and ±100 the full control effect); details: HEK293T VDR-UAS-bla, beta-lactamase FRET ratio, 16 h; activation: at 63.5 µM (top of the series) unless noted
Method in brief: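 Agonist mode, beta-lactamase reporter: fluorescence from LiveBLAzer B/G FRET substrate (2 h, room temperature) read after 16 h compound treatment at 37 C of VDR-bla cells, which were pre-incubated 4 h after seeding.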

[18] = qHTS assay to identify small molecule agonists of the vitamin D receptor (VDR) signaling pathway - cell viability counter screen (AID 743224); details: VDR-bla HEK293T viability, CellTiter-Glo luminescence, 16 h; activity change, negative = cytotoxicity: at 62.6 µM (top of the series) unless noted
Method in brief: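 Counter screen run in the same wells as the VDR-bla reporter assay: CellTiter-Glo luminescence, 30 min at room temperature, after 16 h compound treatment at 37C of cells pre-plated for 4 h.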
Tags describe the fitted curve by direction and shape or compound fluorescence and quenching.

## CN(C)CCN(Cc1cccs1)c1ccccn1
[1]
  Potency: inconclusive [rising, single point]
[2]; at 34.3 µM (top of the series)
  activation: inconclusive: -21.2%
[2]; at 73.3 µM (top of the series)
  activation: inconclusive: -20%
[3]
  Potency: inactive
[4]
  Potency: inconclusive [cytotoxic, partial curve, poor fit]
[5]
  Potency: inactive
[6]
  Potency: inconclusive

## N#Cc1nc(Cl)c(Cl)c(Cl)c1Cl
[7]
  Potency: inconclusive
[8]
  Potency: inconclusive [rising, full curve, poor fit]
[9]
  Potency: active: 4.36 µM
[2]; activation: at 73.3 µM (top of the series) unless noted
  Potency: inconclusive [falling, full curve]
[10]
  Potency: active: 2.19 µM
[11]
  Potency: inconclusive
[12]
  Potency: active: 7.76 µM
[3]
  activation: inconclusive: 26.9%
[13]
  Potency: active: 15.5 µM
[14]
  Potency: active: 7.76 µM
[15]
  Potency: inconclusive [rising, partial curve]
[4]
  Potency: active: 13.8 µM
[16]
  Potency: inconclusive [falling, full curve]
[17]
  Potency: inactive
[5]
  Potency: active: 6.92 µM
[18]
  Potency: active: 11 µM
[6]
  Potency: active: 19.5 µM
